# From PubChem BioAssay AID1347165 (National Center for Advancing Translational Sciences (NCATS), 2019)
# Values joined by “and” are separate entries in the source; they are usually repeats but may differ in a detail not shown here. Identical values can stand only once. The campaign covered roughly 220,000 compounds. About 5,700 (2.6%) were called active. Inconclusive means that the source gave no clear call. Such entries were picked first, then a sample of the others. Calls follow the shape of the dose curve; as a rule, active = well fitted inhibition curve with a large enough effect; inconclusive = small, poorly fitted or top-dose-only effect; inactive = no such curve, though single readings can be large or run the other way. A potency beside an inconclusive call is a rough fit, not a confirmed value.
# Molecular target: Lysine-specific demethylase 5B (Homo sapiens) (UniProt Q9UGL1)
# Sequence of UniProt Q9UGL1 (Q9UGL1 whole entry, looked up): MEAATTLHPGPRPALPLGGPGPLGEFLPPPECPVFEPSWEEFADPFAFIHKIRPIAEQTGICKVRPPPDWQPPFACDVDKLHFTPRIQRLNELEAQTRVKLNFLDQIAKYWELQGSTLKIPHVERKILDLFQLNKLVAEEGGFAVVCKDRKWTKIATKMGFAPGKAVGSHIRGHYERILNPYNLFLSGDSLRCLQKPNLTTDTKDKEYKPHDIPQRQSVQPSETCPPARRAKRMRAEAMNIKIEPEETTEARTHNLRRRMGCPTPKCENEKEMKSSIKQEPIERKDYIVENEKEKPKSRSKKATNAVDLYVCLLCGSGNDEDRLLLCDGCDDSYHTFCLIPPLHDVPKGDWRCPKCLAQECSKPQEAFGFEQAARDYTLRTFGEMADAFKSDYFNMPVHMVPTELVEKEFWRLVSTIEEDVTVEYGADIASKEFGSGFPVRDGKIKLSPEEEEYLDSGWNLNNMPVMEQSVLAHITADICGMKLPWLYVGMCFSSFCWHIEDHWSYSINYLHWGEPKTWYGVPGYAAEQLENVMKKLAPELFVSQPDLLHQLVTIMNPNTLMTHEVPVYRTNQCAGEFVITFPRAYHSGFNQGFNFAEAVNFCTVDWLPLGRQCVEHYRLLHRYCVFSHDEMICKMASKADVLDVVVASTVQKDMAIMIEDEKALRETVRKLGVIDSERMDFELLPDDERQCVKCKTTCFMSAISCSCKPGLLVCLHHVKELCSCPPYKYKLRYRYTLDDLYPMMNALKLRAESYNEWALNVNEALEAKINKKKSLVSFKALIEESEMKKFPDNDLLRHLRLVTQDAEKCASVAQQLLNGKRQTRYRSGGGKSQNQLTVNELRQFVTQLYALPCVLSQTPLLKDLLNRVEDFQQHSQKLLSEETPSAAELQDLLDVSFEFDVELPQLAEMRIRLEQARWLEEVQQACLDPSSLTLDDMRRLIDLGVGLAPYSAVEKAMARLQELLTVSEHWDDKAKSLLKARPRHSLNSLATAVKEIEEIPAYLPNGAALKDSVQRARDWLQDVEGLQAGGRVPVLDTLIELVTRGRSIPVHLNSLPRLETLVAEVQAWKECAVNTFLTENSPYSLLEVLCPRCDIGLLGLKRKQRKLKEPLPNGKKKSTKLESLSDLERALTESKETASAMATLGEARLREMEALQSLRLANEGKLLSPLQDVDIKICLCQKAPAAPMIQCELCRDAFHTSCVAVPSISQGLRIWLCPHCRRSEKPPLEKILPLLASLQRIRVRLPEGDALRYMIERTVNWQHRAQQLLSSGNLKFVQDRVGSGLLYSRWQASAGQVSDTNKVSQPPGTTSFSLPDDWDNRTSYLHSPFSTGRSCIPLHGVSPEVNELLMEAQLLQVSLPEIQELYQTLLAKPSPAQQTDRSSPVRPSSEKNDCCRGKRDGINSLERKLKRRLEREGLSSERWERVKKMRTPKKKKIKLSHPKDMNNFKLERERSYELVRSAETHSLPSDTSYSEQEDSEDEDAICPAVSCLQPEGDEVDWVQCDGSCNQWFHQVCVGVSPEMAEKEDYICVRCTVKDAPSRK
# Assay: Primary screen for KDM5B Histone Demethylases FDH-coupled qHTS; also: nearly all actives have a fitted effect of over 70% in size; as to activity change, negative = inhibition: 0% is about no effect
# Conditions: FDH-coupled NADH fluorescence (FDH is formaldehyde dehydrogenase); activity change, negative = inhibition: at 57.7 µM (top of the series) unless noted
# Method in brief: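 Here, H3K4me3 peptide (12.5 µM in substrate mix) is demethylated by KDM5BΔAP, 200 nM final, after 10 min compound exposure. Formaldehyde product is coupled through FDH (0.25 U/mL in mix) to NADH fluorescence; 30-min ΔRFU feeds dose-response curves.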
# Potency is read from the fitted curve at half-maximal effect; tags tell the direction and shape of the fitted curve.
SMILES,Potency,"activity change, negative = inhibition"
COc1cccc(-n2c(SCC(=O)Nc3cccc(C)c3)nc3c([nH]c4ccccc43)c2=O)c1,"inconclusive: 17.8 µM [inhibitor, partial curve, poor fit]",–
Cc1noc(C)c1CCC(=O)Nc1nc(-c2ccc3c(c2)CCO3)cs1,inactive,–
COCCn1cnc2ccc(-c3cccc(C(F)(F)F)c3)nc2c1=O,inactive,–
CCN(CCN1CCCC1)C(=O)C1CCC(=O)N(Cc2ccccc2F)C1 (centres undefined),"inconclusive: 14.1 µM [inhibitor, partial curve]",–
CCC(=O)N(C)C(C)c1cccs1 (centres undefined),inactive,–
O=C(Nc1cccc(-c2nnnn2C2CC2)c1)C1CCCC1,inactive,–
CNc1ncc(C(=O)N2CCN(c3nccc(N)n3)CC(O)C2)cn1 (centres undefined),"inconclusive: 11.2 µM [inhibitor, partial curve]",–
CCOc1ccccc1N1CCN(Cc2cc(=O)oc3ccc4ccccc4c23)CC1,"inconclusive: 31.6 µM [inhibitor, partial curve, poor fit]",–
N#CC1=C2SCN(Cc3ccccc3)CN2C(=O)CC1c1cccc2ccccc12 (centres undefined),"inconclusive: 8.91 µM [inhibitor, full curve, poor fit]",–
CCCCCc1ccc(/C=C/C(=O)O)cc1,inactive,–
O=C(CSc1nc2c([nH]c3ccccc32)c(=O)n1-c1ccc(F)cc1)NCC1CCCO1 (centres undefined),"inconclusive: 15.8 µM [inhibitor, partial curve, poor fit]",–
Cc1nc2ncccn2c1C(=O)N1CCC(c2nccn2CC(N)=O)CC1,active: 28.2 µM,–
COc1cc(OC)cc(C(=O)N2CCc3cn(C)c4cccc(c34)C2)c1,inactive,–
Cc1cc(C)cc(C(=O)NCCn2nc(-c3ccc(F)cc3)ccc2=O)c1,inactive,–
Cc1c(CCC(=O)O)c(=O)oc2c(C)c(OCc3ccccc3Cl)ccc12,"inconclusive: 3.55 µM [inhibitor, full curve, poor fit]",–
Cc1cn2nc(-c3nc(C4CCCN(C(=O)c5ccc(C)s5)C4)no3)cc2c(=O)[nH]1 (centres undefined),active: 28.2 µM,–
CCc1ccc(NC(=O)CSc2nc(C)c(C(=O)Nc3ccc(Cl)cc3)c(-c3ccc(OC)cc3)c2C#N)cc1,"inconclusive: 12.6 µM [inhibitor, partial curve, poor fit]",–
O=C(COc1ccccc1)N1CCOc2ccc(CN3CCc4ccccc4C3)cc2C1,"inconclusive: 15.8 µM [inhibitor, partial curve]",–
COc1cccc(C2=NN(S(=O)(=O)c3ccccc3)C(c3ccc4nccnc4c3)C2)c1 (centres undefined),inactive,–
CCC(C(=O)Nc1ccc(N(C)C)cc1)n1cnc2ccccc2c1=O (centres undefined),inactive,–
N#Cc1c(SCCN2CCOCC2)nc(N2CCCCC2)c2c1CCCC2,"inconclusive: 25.1 µM [inhibitor, partial curve, poor fit]",–
CCOC(=O)c1cc(C#N)c(N2CCNCC2)nc1C(F)(F)F,"inconclusive: 39.8 µM [inhibitor, partial curve, poor fit]",–

SMILES,Potency,"activity change, negative = inhibition"
O/N=C/c1ccc(Cl)c(Cl)c1,inactive,–
C[S+](=O)([O-])Nc1cccc(-c2cc3c(ccn3Cc3ccncc3)c(N3CCOCC3)n2)c1,active: 3.16 µM,–
COc1ccc(-c2cc(N3CCCC(NC(=O)c4c[nH]c5ccccc45)C3)n[nH]2)cc1 (centres undefined),"inconclusive: 22.4 µM [inhibitor, partial curve]",–
CCCCC(=O)Nc1cc(-c2nc3cccnc3s2)ccc1C,"inconclusive: 1.78 µM [inhibitor, full curve, poor fit]",–
COc1ccc(-c2cn3c(n2)sc2cc(C(=O)Nc4c(C)cccc4C)ccc23)cc1,"inconclusive: 35.5 µM [inhibitor, partial curve, poor fit]",–
CCOC(=O)C(CC)Oc1ccc2c(=O)c(Oc3cccc(C)c3)c(C(F)(F)F)oc2c1 (centres undefined),inactive,–
O=C(Nc1ccc(F)cc1)C1CCN(c2ncnc3c2sc2ncccc23)CC1,inactive,–
Cc1ccc(C2Cn3nnc(-c4noc(-c5n[nH]c6c5CCCC6)n4)c3CO2)cc1 (centres undefined),"inconclusive: 25.1 µM [inhibitor, single point]",–
COC(=O)c1sc(-c2ccccc2)cc1NC(=O)Nc1ccccc1Cl,"inconclusive: 35.5 µM [inhibitor, partial curve, poor fit]",–
O=S(=O)(CCCSc1nc2ccccc2s1)c1ccccc1,inactive,–
Cc1cc(C)cc(Nc2nc3ccccc3nc2-n2nc(C)cc2C)c1,–,inconclusive: -30.7% [inhibitor]
Cc1ccc(CNC(=O)c2cc(-c3ccncc3)nc3ccccc23)cc1,inactive,–
O=C(O)c1ccc(-c2nc3ncccc3[nH]2)cc1,"inconclusive: 141 µM [inhibitor, partial curve, poor fit] and active: 28.2 µM",–
Cc1ccccc1CN1CCC(CNC(=O)Nc2cn(CC(C)C)c(=O)c3ccccc23)CC1,"inconclusive: 25.1 µM [inhibitor, partial curve, poor fit]",–
N#CC1(C(=O)Nc2ccc(Cl)cc2)CCCC1,inactive,–
O=C(O)CCn1ncc2cc(OCc3ccc(-c4cncnc4)cc3)ccc21,"inconclusive: 31.6 µM [inhibitor, single point]",–
O=C(COc1ccc2ccc(=O)oc2c1)NCc1ccc(F)cc1,"inconclusive: 20 µM [inhibitor, partial curve, poor fit]",–
Clc1ccc(Nc2ncnc3c2nnn3Cc2ccccc2)cc1,"inconclusive: 28.2 µM [inhibitor, single point]",–
CC(C)(C)c1ccc(C(=O)Nc2ccc(C(=O)OCc3cc(=O)n4ccsc4n3)cc2)cc1,"inconclusive: 3.98 µM [inhibitor, full curve, poor fit]",–
CCN1c2cc(C(=O)Nc3ccc(C(C)C)cc3)ccc2C(=O)N2CCCCCC21 (centres undefined),"inconclusive: 25.1 µM [inhibitor, partial curve, poor fit]",–
Cc1nc2ccc(S(=O)(=O)CCC(=O)Nc3ccc(C(C)C)cc3)cc2s1,–,inconclusive: -30.8% [inhibitor]
NC(=O)Cc1c[nH]c2ncc(-c3ccc(F)c(Cl)c3)cc12,active: 39.8 µM,–
